Reference: PubChem BioAssay AID504832 (National Center for Advancing Translational Sciences (NCATS), 2011)
Among all 310,000 compounds or so, about 18,000 (5.8%) were called active. Inconclusive means that the source gave no clear call. Such entries were picked first, then a sample of the others. The call rests on the fitted dose curve; in most records, active means well fitted inhibition curve with a large enough effect; inconclusive means small, poorly fitted or top-dose-only effect, or another doubt; inactive means no such curve, though single readings can be large or run the other way. No potency is given beside an inconclusive call; the fits are too rough.

Experiment: Primary qHTS for delayed death inhibitors of the malarial parasite plastid, 48 hour incubation
Details: P. falciparum luciferase growth in erythrocytes; series mostly up to 28.7 µM
How it was run: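 Luciferase-expressing P. falciparum in infected erythrocytes (2% hematocrit, 0.1% parasitemia final) in RPMI 1640/0.5% Albumax were exposed to compound for 48 hours at 37 C, 5% CO2; growth read as luminescence.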
Potency means the concentration at half of the fitted maximal effect; tags describe the fitted curve by direction and shape.

SMILES	Potency
COc1cccc(C(c2sc3nc(C)nn3c2O)N2CCN(c3ccccc3F)CC2)c1 (stereo not drawn)	inconclusive [inhibitor, partial curve, poor fit]
Cc1ccc(C(=O)NCCCNC(=O)COc2ccc(Cl)cc2)cn1	inactive
CS(=O)(=O)NN1C(=O)c2ccccc2NC1c1cc2ccccc2nc1Cl (stereo not drawn)	inactive
CCOC(=O)C1CCCN(c2nc3ccccc3nc2C(C#N)C(=O)OCC)C1 (stereo not drawn)	inconclusive [inhibitor, full curve]
Cc1cnc(C(=O)OCC(=O)N=c2sccn2Cc2ccccc2Cl)cn1	inconclusive [inhibitor, single point]
O=C(NCc1ccco1)c1cccs1	inconclusive [inhibitor, full curve, poor fit]
O=C(CN1C(=O)CCS(=O)(=O)c2ccccc21)Nc1cccc(Cl)c1	inconclusive [inhibitor, partial curve, poor fit]
CC(C)c1nc2ccccc2c2nnc(SCC(=O)NCc3ccco3)n12	inconclusive [inhibitor, single point]
S=C(NC1CCCCC1)N(CCc1nc2ccccc2[nH]1)C1CCCC1	inconclusive [inhibitor, partial curve]
CN(C)CCCN(C(=O)c1ccc2c(c1)CCCC2)c1nc2c(F)cccc2s1	active: 9.28 µM
Cc1ccc(N=c2c([N+](=O)[O-])nn(-c3ccc(Cl)cc3)n2O)cc1C	active: 11.7 µM
O=C(Nc1c(-c2ccccc2)nc2ccc(Cl)cn12)c1cccs1	inactive
C(=Nc1ccc(Nc2ccccc2)cc1)c1ccc2ccccc2c1	inconclusive [inhibitor, single point]
CCCNC(=O)c1onc(CSc2ccc(F)cc2)c1C(=O)NCCC	inconclusive [inhibitor, single point]
COc1cccc2c1C(=O)c1c(O)c3c(c(O)c1C2=O)C[C@@](O)(C(=O)CO)C[C@@H]3OC1CC(N)C(O)C(C)O1 (stereo partly drawn)	active: 0.426 µM
CC1CN(C(=O)c2ccccc2OCc2ccc(Cl)cc2Cl)CC(C)O1 (stereo not drawn)	inconclusive [inhibitor, single point]
C#CCNC(=O)C1=C[C@@H](C2CCCCC2)[C@H](CCCO)[C@@H](OCC)O1	inconclusive [inhibitor, single point]
O=C(CSc1ncn[nH]1)NCc1ccc(Cl)cc1	inconclusive [inhibitor, single point]
Cc1nnc(SCC(=O)N2CCc3ccccc32)n1-c1ccccc1	inconclusive [inhibitor, single point]
CC(Oc1cccc([N+](=O)[O-])c1)C(=O)NCCC1=CCCCC1 (stereo not drawn)	inconclusive [inhibitor, single point]
COc1ccc(CNC(=O)C(C#N)c2nc3ccccc3nc2N2CCCC2)cc1 (stereo not drawn)	inconclusive [inhibitor, single point]
O=C(c1cc(COc2ccc(F)cc2F)on1)N1CCN(C(=O)c2ccco2)CC1	inactive

SMILES	Potency
CCc1nnc(NS(=O)(=O)c2ccc(N/C=C\C(=O)c3ccc(F)cc3)cc2)s1	inactive
Cc1ccc(C)c(C(=O)CCC(=O)N2CCN(c3cccc(C(F)(F)F)c3)CC2)c1	inactive
CSC(=NC#N)N1CCN(C(c2ccccc2)c2ccccc2)CC1	inconclusive [inhibitor, single point]
CC(=O)c1c(C)[nH]c(C(=O)CN2CCN(S(=O)(=O)c3ccccc3[N+](=O)[O-])CC2)c1C	inconclusive [inhibitor, single point]
O=C(N/N=C/c1ccccn1)c1cccc(NC(=O)c2ccccc2Cl)c1	inconclusive [inhibitor, partial curve, poor fit]
O=C1CC(N2CCN(Cc3ccccc3)CC2)C(=O)N1c1ccccc1 (stereo not drawn)	inactive
CCn1c(CSc2nc(C)cc(C)n2)nnc1SCC(=O)Nc1ccccc1	inconclusive [inhibitor, single point]
O=c1c(Cl)c2oc3ccccc3nc-2c2ccccc12	active: 13.1 µM
Nc1cc(-c2ccc(Br)cc2)nn1Cc1ccccc1	inactive
Cc1cc(C)cc(N(CC(=O)NC2CCC(C)CC2)S(=O)(=O)c2c(C)[nH]c(=O)[nH]c2=O)c1 (stereo not drawn)	inconclusive [inhibitor, partial curve, poor fit]
COC(=O)c1ccccc1NC(=O)C1CCN(S(=O)(=O)c2cc(C)ccc2OC)CC1	inconclusive [inhibitor, partial curve, poor fit]
CCOc1ccc(NC(=O)C2CCCN2C(=O)NC2CCCCC2)cc1 (stereo not drawn)	inactive
COC(=O)C(Cc1ccccc1)N1CCS(=O)(=O)CC1 (stereo not drawn)	inactive
CC(O)CNCCCOc1ccccc1OCc1ccccc1 (stereo not drawn)	inconclusive [inhibitor, partial curve, poor fit]
COc1ccccc1OCC(=O)Nc1cccc(-c2nnc(-c3ccco3)o2)c1	inconclusive [inhibitor, full curve, poor fit]
CCn1c(C)[n+](Cc2ccccc2)c2ccc(C(=O)OC)cc21	inconclusive [inhibitor, partial curve]
CC1(C)CC[C@]2(C(=O)O)[C@H](O)C[C@]3(C)C(=CCC4[C@@]5(C)C[C@H](O)[C@H](O)[C@@](C)(CO)C5CC[C@]43C)[C@@H]2C1 (stereo partly drawn)	inactive
O=C(O)c1ccccc1SC1CC(=O)N(c2ccccc2)C1=O (stereo not drawn)	inactive
CC(=O)Nc1cc[n+](C(C)C(=O)c2ccccc2)cc1 (stereo not drawn)	inconclusive [inhibitor, partial curve]
Cc1cc(C)c2c(N=CN(C)C)c(C(=O)N3CCN(c4ncccn4)CC3)sc2n1	inconclusive [inhibitor, single point]
COc1ccc(Br)cc1[C@H]1[C@H]2C=CC[C@@H](C)[C@@H]2C(=O)N1Cc1ccccc1	inconclusive [inhibitor, single point]
